Results on 85 compounds are retold here after publication PMC4336329 (PLoS ONE, 2015).

About 2,200 (0.71%) of roughly 310,000 compounds showed an effect of 50% or more. Effects have a minus sign here. Some of the results follow.

human ether-à-go-go-related gene (hERG) potassium channel, sequence (Q12809 whole entry, looked up): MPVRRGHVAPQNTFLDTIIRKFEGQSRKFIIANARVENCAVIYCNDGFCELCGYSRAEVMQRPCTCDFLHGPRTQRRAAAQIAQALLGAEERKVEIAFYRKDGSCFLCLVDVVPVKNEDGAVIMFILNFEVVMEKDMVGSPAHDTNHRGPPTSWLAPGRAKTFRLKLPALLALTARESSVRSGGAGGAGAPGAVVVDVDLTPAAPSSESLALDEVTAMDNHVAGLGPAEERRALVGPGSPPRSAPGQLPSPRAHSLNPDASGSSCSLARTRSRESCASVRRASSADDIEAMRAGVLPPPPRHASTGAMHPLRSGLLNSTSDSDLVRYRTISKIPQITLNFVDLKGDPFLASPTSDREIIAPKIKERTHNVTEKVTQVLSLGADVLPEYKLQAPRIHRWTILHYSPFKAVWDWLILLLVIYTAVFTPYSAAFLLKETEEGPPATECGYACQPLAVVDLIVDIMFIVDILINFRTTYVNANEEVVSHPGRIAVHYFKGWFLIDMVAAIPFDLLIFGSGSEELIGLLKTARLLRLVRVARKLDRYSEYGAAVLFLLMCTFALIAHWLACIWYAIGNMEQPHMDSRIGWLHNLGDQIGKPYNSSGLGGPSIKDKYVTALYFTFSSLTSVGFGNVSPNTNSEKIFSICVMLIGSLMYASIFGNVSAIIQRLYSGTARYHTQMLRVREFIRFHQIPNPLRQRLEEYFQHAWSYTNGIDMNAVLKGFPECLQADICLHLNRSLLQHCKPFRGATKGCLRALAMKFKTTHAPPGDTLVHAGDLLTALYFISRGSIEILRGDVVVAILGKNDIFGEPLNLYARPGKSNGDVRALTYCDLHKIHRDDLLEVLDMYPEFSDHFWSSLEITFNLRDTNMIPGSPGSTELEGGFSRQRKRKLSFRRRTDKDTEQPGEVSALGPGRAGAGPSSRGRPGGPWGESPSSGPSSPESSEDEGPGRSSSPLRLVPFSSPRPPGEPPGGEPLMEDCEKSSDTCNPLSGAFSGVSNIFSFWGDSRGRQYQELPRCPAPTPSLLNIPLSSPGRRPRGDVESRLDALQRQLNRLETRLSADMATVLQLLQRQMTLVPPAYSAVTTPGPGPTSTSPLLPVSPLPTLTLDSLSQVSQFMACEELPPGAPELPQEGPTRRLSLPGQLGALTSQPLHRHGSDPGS

The experiment addresses human ether-à-go-go-related gene (hERG) potassium channel (human, UniProt Q12809). Put plainly: primary screen, population patch clamp on CHO cells stably expressing hERG.
On to `CCN1CCn2c1nc(N1CCCCC1)nc2=O`, for which the “hERG current change (%, negative = inhibition) at 1uM” value is 10.7%.
With `Cc1nc(NC(=O)CN2CCN(c3cccc(Cl)c3)CC2)sc1C(=O)N(C)C`, the “hERG current change (%, negative = inhibition) at 1uM” value is 11.1%.
On to `COc1cc(/C=C2\SC(=O)N(CCNC(=O)c3cnc(C)cn3)C2=O)cc(OC)c1OC`, for which the “hERG current change (%, negative = inhibition) at 1uM” value was found to be 7.07%.
With `CCn1cc(C(=O)N[C@H](C(=O)NCCCN2CCOCC2)C(C)C)c(=O)c2cc3c(cc21)OCO3` the figure was 8.44%; with `c1ccc(-c2[nH]ncc2CN2CCN(Cc3ccc4c(c3)OCO4)CC2)cc1`, -1.83%.
Take `CNC(=S)N/N=C/c1cn(CCOc2cccc(OC)c2)c2ccccc12`: the “hERG current change (%, negative = inhibition) at 1uM” value amounted to 10.1%.
With `O=C(NCc1ccc(F)cc1)C1CCC(=O)N1C1CCCCC1` (stereo not shown) the figure was -1.01%; with `Cl.O=C(NN1CCN(Cc2ccccc2)CC1)c1ccc(N2CCOCC2)c([N+](=O)[O-])c1`, -12.8%.
`CC[C@@H](C)C(C(=O)N1CCN(C(=O)OC(C)(C)C)CC1)n1cc(-c2cn([C@@H](C)C(=O)N3CCN(C(=O)OC(C)(C)C)CC3)nn2)nn1` (stereo partly shown): the “hERG current change (%, negative = inhibition) at 1uM” value amounted to 8.79%.
In the case of `FC(F)(F)c1nc2ccccc2nc1N/N=C/c1c(Cl)cccc1Cl` it was 15.4%; in that of `O=C(CC1CCCC1)Nc1ccc2c(c1)CCC2`, 2.93%; in that of `Cc1ccc(S(=O)(=O)N(C)C)cc1NC(=O)c1cccs1`, 12.4%.
With `Cc1[nH]c2ccc(-c3n[nH]c(=S)n3Cc3ccccc3)cc2c1C` the figure was -0.49%; with `O=c1[nH]c(SCc2ccc(Cl)cc2)nc2[nH]ncc12`, 4.26%; with `O=C(NCCCNC(=O)C(F)(F)C(F)F)C(F)(F)C(F)F`, 2.64%.
In the case of `COc1ccc(C(=O)NCCS(=O)(=O)NCc2ccc(F)cc2)cc1` it was -8.81%; in that of `O=S(=O)(Nc1nc2ccc(S(=O)(=O)N3CCCCC3)cc2s1)c1ccccc1`, 3.25%.
For `NS(=O)(=O)c1ccc(NC(=O)CSc2nnc(Cc3cccs3)n2-c2ccccc2)cc1`, the “hERG current change (%, negative = inhibition) at 1uM” value came out at 9.2%.
In the case of `CNc1nc(C)c(C(=O)OCC(=O)OC)s1` it was 0.891%; in that of `Cn1nccc1C(=O)NC1CCCc2c1cnn2-c1ccc(F)cc1F` (stereo not shown), 5.11%.
In the case of `Cc1nn(-c2ccccc2)nc1C(=O)OCC(=O)N1CCC(C)CC1` it was -5.11%; in that of `CCc1nc(SCC(=O)c2ccc3c(c2)OCCO3)c2ccccc2n1`, 2.53%; in that of `O=C(c1ccc(F)cc1)N1CCCC(C(=O)N2CCc3ccccc3C2)C1` (stereo not shown), 10.4%.
In the case of `CCN(CC)CCCN=Cc1c(O)n(-c2ccccc2C)c(=O)c2ccccc12` it was -12.5%; in that of `CCCCCCCC#Cc1ccccc1/C=N/S(=O)c1ccc(C)cc1` (stereo not shown), 4.59%; in that of `COc1ccc(C(=O)Nc2ccccc2)cc1NC(=O)c1ccc([N+](=O)[O-])cc1`, -24.6%.
Regarding `COc1cc(NC(=O)CN2CCN(CC(=O)Nc3ccccc3OC)CC2)cc(OC)c1`, the “hERG current change (%, negative = inhibition) at 1uM” value is reported as 5.15%.
For the compound `COc1ccc(N(C(=O)Cc2cccs2)C2C=CS(=O)(=O)C2)cc1` (stereo not shown), the “hERG current change (%, negative = inhibition) at 1uM” value is recorded as -0.253%.
In the case of `O=C(C[n+]1cccc(/C=N/O)c1)N1CCCCCC1.[Cl-]` it was 11.9%.
In the case of `O=C(C1=C(O)C(=O)N(CCN2CCOCC2)C1c1ccc(F)cc1)c1cccs1` (stereo not shown) it was 15.7%.
With `CCOC(=O)C(NC(C)=O)(OCc1ccccc1)C(F)(F)F` (stereo not shown) the figure was 4.16%; with `CN(CCO)c1cc(N2CCC3(CC2)OCCO3)c2nonc2c1[N+](=O)[O-]`, 17.8%; with `CC(C)(C)NC(=O)C(c1ccc(F)cc1)N(Cc1ccco1)C(=O)CCC(=O)Nc1ccccn1` (stereo not shown), -5.78%.
For the compound `O=C(CCc1ccccc1)N=C1SC2CS(=O)(=O)CC2N1Cc1ccc(F)cc1` (stereo not shown), the “hERG current change (%, negative = inhibition) at 1uM” value amounted to 8.66%.
In the case of `CCc1nc2ccccc2n1CC1CC1(Cl)Cl` (stereo not shown), the “hERG current change (%, negative = inhibition) at 1uM” value is reported as -14.5%.
Take `COc1ccc(/C=N/NC(=O)c2[nH]c3ccc(Br)cc3c2-c2ccccc2)cc1`: the “hERG current change (%, negative = inhibition) at 1uM” value was found to be 12.1%.
In the case of `O=C1N(c2ccc(Cl)cc2)C(c2ccc(Cl)cc2)N2CCCN12` (stereo not shown) it was 2.46%; in that of `Oc1[nH]c2ccccc2c1C=NCC1CCCO1` (stereo not shown), 16.2%.
With `COCCN1C(=O)C(=O)/C(=C(/O)c2ccc(S(=O)(=O)N3CCOCC3)cc2)C1c1ccc(O)cc1` (stereo not shown) the figure was 13.2%; with `CCC(C)N1C(=O)N(C)C2NC(=O)NC21` (stereo not shown), 11.2%; with `COc1cccc(-c2cc(C(=O)N3CCN(c4ccccc4OC)CC3)no2)c1`, 9.27%.
In the case of `COc1ccc(-c2noc(N3CCC(C(=O)NCCCN4CCCC(C)C4)CC3)n2)cc1` (stereo not shown) it was -9.36%; in that of `CC(C)(O)C#Cc1ccc(CN2CCN(Cc3ccccc3)C(CCO)C2)s1` (stereo not shown), 8.04%; in that of `COC(=O)c1ccc(NC(=O)Nc2ccc(F)c(Cl)c2)cc1`, 14%.
As to `O=[N+]([O-])c1cc(C(F)(F)F)ccc1Sc1ccccn1`, the “hERG current change (%, negative = inhibition) at 1uM” value stood at 0.0303%.
Regarding `Cc1nnc(SCC(=O)N2c3ccccc3C(C)(c3ccc(Cl)cc3)CC2(C)C)s1` (stereo not shown), the “hERG current change (%, negative = inhibition) at 1uM” value was found to be 3.42%.
With `COc1ccc(NC(=O)CN(C)S(=O)(=O)c2ccc3c(c2)CC(C)N3C(C)=O)c(OC)c1` (stereo not shown) the figure was 10.3%.
With `COCCOC(=O)C1=C(C)N=C2SCCC(=O)N2C1c1ccc(C(=O)OC)cc1` (stereo not shown) the figure was 14.9%; with `COc1ccc(-c2cc(C(=O)N/N=C/c3cc(OC)c(OC)cc3OC)c3ccccc3n2)cc1`, 15%; with `COc1cc(C)nc(OCCNS(=O)(=O)c2cc(C)ccc2C)n1`, 6.1%.
With `CCN1C(=O)/C(=C/c2ccc(OCc3ccc(C(=O)O)cc3)c(Cl)c2)NC1=S` the figure was 14%; with `COc1ccc(Nc2ccccc2N)cc1.Cl`, 8.84%; with `Cc1cc(NC(=O)CSc2nc3c(cc2C#N)CCC3)no1`, 20.6%.
On to `CC(=O)C[C@H](O)CC(=O)[C@H]1OC(=O)[C@H](C)C/C=C\Cc2ccccc21`, for which the “hERG current change (%, negative = inhibition) at 1uM” value worked out at 10.6%.
In the case of `CC(C)(C)OC(=O)N1Cc2ccccc2C[C@H]1C(=O)NCC(=O)NC1CCCC1`, the “hERG current change (%, negative = inhibition) at 1uM” value is 7.91%.
With `CC(C)(C)c1ccc(C(=O)NCC(=O)OCC(=O)c2ccc3c(c2)-c2ccccc2C3)cc1` the figure was 7.71%; with `COc1cc(OC)cc(C(=O)N[C@H](C(=O)OCC(=O)Nc2ccc(F)c(F)c2F)C(C)C)c1`, -12.9%; with `Cc1ccc(-c2nc(CCNC(=O)c3ccco3)cs2)cc1`, 11%.
In the case of `CN(C)c1ccc(CNC(=O)CN(C)S(=O)(=O)c2cccc3cccnc23)cc1` it was 1.08%; in that of `CC(C(=O)Nc1ccccc1Cl)N(c1ccccc1)S(C)(=O)=O` (stereo not shown), 18.5%.
In the case of `Nc1nonc1-n1nnc(C(=O)N/N=C/c2ccc(Cl)cc2Cl)c1CN1CCCCC1` it was 12.2%; in that of `CC(C)CCOc1ccc(C2(C)NC(=O)N(CN3CCOCC3)C2=O)cc1` (stereo not shown), 7.5%; in that of `Cc1oc(-c2ccc(Cl)cc2)nc1CS(=O)CC(=O)NCCCN(C)C1CCCCC1` (stereo not shown), -12%.
Consider `Cc1cccc(CN(C(=S)Nc2c(C)cccc2C)c2cccnc2)c1`, for which the “hERG current change (%, negative = inhibition) at 1uM” value is 6.25%.
In the case of `CC(C)(C)C(=O)NC1(C(F)(F)F)NC(=O)N(CCc2ccccc2)C1=O` (stereo not shown) it was 20.5%; in that of `COc1ccc(Cn2nnnc2C(c2cc3ccc(OC)cc3[nH]c2=O)N2CCCCCC2)cc1` (stereo not shown), -8.91%; in that of `Cc1cc(NC(=O)c2noc3c2CCCCC3)no1`, 10.8%.
For the compound `CCn1ncc(Br)c1C(=O)Nc1ccccc1OC`, the “hERG current change (%, negative = inhibition) at 1uM” value was determined as 10.4%.
With `O=C(NCCO)c1ccc2c3n(nc2c1)-c1ccccc1CO3` the figure was 15.2%; with `CC(C)(C)NC(=O)CSc1nncn1NCc1c(Cl)cccc1Cl`, -6.69%.
With `Cc1cc(C)cc(C(=O)N(Cc2ccco2)c2c(N)n(Cc3ccccc3)c(=O)[nH]c2=O)c1` the figure was 17.3%; with `Cc1ccccc1-c1n[nH]c(=S)n1/N=C/C=C/c1ccco1`, 1.21%; with `COc1cc([N+](=O)[O-])ccc1NC(=O)CN1CCCC1`, 9.93%.
With `COc1cc(OC)c(OC)cc1/C=N/NC(=O)c1cccc(S(=O)(=O)N2CCOCC2)c1` the figure was 6.78%.
For `COc1cc(/C=N\NC(=O)CNC(=O)c2cccc([N+](=O)[O-])c2)ccc1O`, the “hERG current change (%, negative = inhibition) at 1uM” value stood at 13.1%.
For `O=C(CCN1C(=O)/C(=C/c2ccc3c(c2)OCO3)SC1=S)Nc1ccccc1`, the “hERG current change (%, negative = inhibition) at 1uM” value is 12.4%.
With `N#Cc1c(N)sc(=S)c2c1CCCC2` the figure was 2.13%.
As to `N#CCSc1nc2c(c(=O)n1Cc1ccccc1)C1(CCCC1)Cc1ccccc1-2`, the “hERG current change (%, negative = inhibition) at 1uM” value is -2.55%.
`Cc1ccc(S(=O)(=O)Nn2c(C)nnc2-n2nc(C)cc2C)cc1`: the “hERG current change (%, negative = inhibition) at 1uM” value worked out at 1.05%.
In the case of `Nc1nc(N)nc(-c2ccc(Oc3ccccc3)cc2)n1` it was 15.2%; in that of `Cn1c(Cc2ccccc2)nnc1SCC(=O)Nc1ccccc1N1CCOCC1`, 9.22%.
For `O=C(Nc1ccccc1)/C(=C/c1ccc(F)cc1)NC(=O)c1ccco1`, the “hERG current change (%, negative = inhibition) at 1uM” value amounted to 7.46%.
In the case of `Cc1ccccc1OCCC(=O)Nc1ccccc1C(=O)N1CCCCC1` it was 10.9%; in that of `Cc1ccc(C(=O)COC(=O)CNC(=O)c2ccc(Br)o2)cc1[N+](=O)[O-]`, 10%.
For `Cc1ccc(NC(=O)COC(=O)CCC(=O)c2cccs2)cc1C`, the “hERG current change (%, negative = inhibition) at 1uM” value worked out at 8.49%.
